PubChem BioAssay (NCATS)
The shares of active, inactive and inconclusive entries below differ from those in the screen. For some assays here: Where the call is inconclusive, the potency comes from a doubtful curve fit. For some assays here: A note “side channel” means that the fit belongs to a control or component signal, not to the main read-out. Activity calls are given as the source filed them. Unless noted, calls follow the shape of the dose curve; as a rule, active = well fitted curve in the direction sought with a large enough effect; inconclusive = small, poorly fitted or top-dose-only effect, or another doubt; inactive = no such curve, though single readings can be large; an effect the other way counts as inactive or inconclusive.

Tests used:
[1] = target: 3',5'-cyclic-AMP phosphodiesterase 4B (Homo sapiens) (UniProt Q07343); assay: qHTS Assay for Inhibitors of PDE-IV (AID 607; active = well fitted activation curve with a large enough effect in the main read-out, with a control signal flat, not every such curve was filed as active; inconclusive = small, poorly fitted or top-dose-only effect, or effect the other way, or a change in a side signal; also: potency is read from the fitted curve at half-maximal effect); conditions: HEK293 ACTOne CNG channel cells, membrane potential fluorescence; activation (PDE inhibition): at 22.9 µM (top of the series)
In short: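 Live HEK293 cells with a modified cyclic nucleotide-gated (CNG) channel report intracellular cAMP via membrane-potential dye fluorescence (ex 535/em 590 nm). Endogenous PDE-IV was targeted. Compounds were tested at up to 22.9 uM final; RO 20-1724 100 uM served as control.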

[2] = qHTS Assay for Lipid Storage Modulators (AID 1519; calls by dose curve; also: % is scaled to controls: 0 for no effect and ±100 for the full control effect); conditions: Drosophila S3 cells, BODIPY lipid droplet/cell ratio, laser cytometry, cells loaded with oleic acid; activity change, negative = inhibition: at 57.5 µM (top of the series) unless noted
In short: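 Cells seeded at 5,000 per well were treated with compounds over a concentration series and loaded with oleic acid (400 uM, as added). Lipid droplet fluorescence (488 nm excitation, 500-530 nm channel) was read by laser-scanning cytometry and normalized to 20 uM Triacsin C.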

[3] = target: Dual specificity protein kinase CLK4 (Homo sapiens) (UniProt Q9HAZ1); assay: qHTS Assay for Inhibitors of CDC-like Kinase 4 (Kinase-Glo Assay) (AID 1770); also: % is scaled to controls: 0 for no effect and ±100 for the full control effect; nearly all actives have a fitted effect of over 65% in size
In short: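 Clk4 25 nM, RS peptide 100 uM, ATP 1 uM, pH 7.5 Tris, 10 mM MgCl2, 2.5 mM DTT; 4.5 h RT; ATP depletion read by Kinase-Glo luminescence.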

[4] = target: Dual specificity protein kinase CLK4 (Homo sapiens) (UniProt Q9HAZ1); assay: qHTS Assay for Inhibitors of CDC-like Kinase 4 (ADP-Glo Assay) (AID 1771); also: % is scaled to controls: 0 for no effect and ±100 for the full control effect; nearly all actives have a fitted effect of over 70% in size
In short: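 25 nM Clk4 with 100 uM RS repeat peptide and 1 uM ATP (final) in buffer with 2 mM MgCl2, 0.5 mM EGTA, 2.5 mM DTT, 0.01% Triton X-100; 1 h at room temperature; ADP-Glo luminescence for ADP formed.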

[5] = target: Ubiquitin carboxyl-terminal hydrolase 1 (Homo sapiens) (UniProt O94782); assay: Inhibitors of USP1/UAF1: Pilot qHTS (AID 504865);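 also: rhodamine fluorescence freed from ubiquitin-rhodamine substrate followed over time; potency is read from the fitted curve at half-maximal effect; nearly all actives have a fitted effect of over 35% in size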
In short: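 Enzyme-free wells gave the negative control, while test wells held 1nM USP1/UAF1 preincubated with compound for 15 min at room temperature. Ub-Rho at 150nM final started the reaction, and fluorescence at 480/540 nm was recorded kinetically.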

[6] = AP1 Signaling Pathway (AID 357; active = well fitted curve in either direction with a large enough effect, not every such curve was filed as active; inconclusive = small, poorly fitted or top-dose-only effect, or another doubt;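 also: ME-180 reporter cells stimulated with EGF at its EC50 level; top concentration of the series differs between compounds; % is scaled to controls: 0 for no effect and ±100 for the full control effect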); conditions: ME-180 AP-1-bla reporter, EGF-induced, beta-lactamase ratio, 5 h; at 7.69 µM (top of the series) unless noted
In short: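 Titration-series screen for positive or negative modulators of EC50 EGF-induced signaling in ME-180 cells carrying an AP-1-driven beta-lactamase reporter. After 5 hours at 37 degrees Celsius, CCF4 460nm/530nm emission ratio gave %Activity; AC50 values derived.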

[7] = NFAT Signaling Pathway (AID 444; active = well fitted curve in either direction with a large enough effect, not every such curve was filed as active; inconclusive = small, poorly fitted or top-dose-only effect, or another doubt;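 also: carbachol stimulus at about its EC50 of 1 µM final; % is scaled to controls: 0 for no effect and ±100 for the full control effect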); conditions: Jurkat NFAT-bla M1, carbachol, beta-lactamase ratio, 5 h; at 7.69 µM (top of the series) unless noted
In short: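 Jurkat cells carrying an NFAT-driven β-lactamase reporter and co-transfected muscarinic M1 receptor were treated with compound plus carbachol (1 uM final, an EC50 level) for 5 h at 37 °C. CCF4 loading followed for 1 h at RT; 460/530 nm ratio gave %activity.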

[8] = target: Cytochrome P450 2D6 (Homo sapiens) (UniProt P10635); assay: qHTS Assay for Inhibitors and Substrates of Cytochrome P450 2D6 (AID 891);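 also: luciferin methyl ether substrate demethylated by CYP2D6 with NADPH regeneration; potency is read from the fitted curve at half-maximal effect; nearly all actives have a fitted effect of over 60% in size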
In short: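 Human CYP2D6 (5 nM) with 30 uM Luciferin-ME EGE (at Km) in 100 mM KPO4, compound preincubated 10 min, then NADPH regeneration system for 60 min at room temperature. Luciferin read by luminescence; normalized to 1.43 uM quinidine.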

[9] = qHTS Assay for Identification of Small Molecule Antagonists for NFkB Signaling Pathway (AID 895; active = well fitted inhibition curve with a large enough effect in the signal ratio, with a control signal flat, not every such curve was filed as active; inconclusive = small, poorly fitted or top-dose-only effect, or effect the other way, or a change in a side signal; the % refers to the signal ratio; also: potency is read from the fitted curve at half-maximal effect); conditions: NFkB beta-lactamase reporter cells, FRET ratio 460/530, stimulated with 10 pM TNF alpha; activity change, negative = inhibition: at 38.3 µM (top of the series)
In short: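 NFkB-bla ME-180 cervical carcinoma cells with beta-lactamase reporter under NFkB response element; compounds added, then TNF alpha at 10 pM final (EC50), 5 h at 37 C. LiveBLAzer substrate 2 h, room temperature; emission 460/530 nm at 405 nm excitation.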

[10] = qHTS Assay for Identification of Small Molecule Agonists for Hypoxia Response Element Signaling Pathway (AID 914; active = well fitted activation curve with a large enough effect in the signal ratio, with a control signal flat, not every such curve was filed as active; inconclusive = small, poorly fitted or top-dose-only effect, or effect the other way, or a change in a side signal; the % refers to the signal ratio; also: potency is read from the fitted curve at half-maximal effect); conditions: ME-180 (cervical carcinoma) HRE-bla reporter, beta-lactamase ratio, CoCl2, 17 h; activation: hits give high values
In short: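 HRE-bla ME-180 cells, overnight plating in Opti-MEM with 0.5% dialyzed FBS; cpd titration + EC50 CoCl2, 17 h, 37 degrees Celsius; CCF4 2.5 h RT; 460/530 nm ratio; AC50.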

[11] = qHTS Assay for Identification of Small Molecule Agonists for Thrombopoietin (TPO) Signaling Pathway (AID 917); also: potency is read from the fitted curve at half-maximal effect
In short: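 IL-3-dependent murine pro-B Ba/F3 cells, stably transfected with human TPO receptor and GpIIb-promoter luciferase, are incubated 24 hrs at 37 C with test compound and 26 pM TPO; luciferase signal is read after 10 min at room temperature.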

[12] = target: Muscarinic acetylcholine receptor M1 (Rattus norvegicus) (UniProt P08482); assay: qHTS Assay for Antagonists of Acetylcholine Muscarinic M1 Receptor: Measurement of IP-One Response (AID 944); also: potency is read from the fitted curve at half-maximal effect; nearly all actives have a fitted effect of over 75% in size
[13] = target: Endonuclease 4 (Escherichia coli (strain K12)) (UniProt P0A6C1); assay: Counterscreen for APE1 Inhibitors: qHTS Validation Assay for Inhibitors of Endonuclease IV (AID 1708); also: potency is read from the fitted curve at half-maximal effect
In short: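 Concentration-response counterscreen run identically to the APE1 assay: 15 min room-temperature preincubation of 2 nM enzyme with compound, reaction started with 50 nM quenched abasic DNA, progress taken from kinetic fluorescence.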

[14] = target: Ferritin light chain (Equus caballus) (UniProt P02791); assay: qHTS Validation Assay for Identification of Novel General Anesthetics (AID 2323); also: potency is read from the fitted curve at half-maximal effect
In short: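 Normalized fluorescence response, scaled between free 1-AMA and 1-AMA/apoferritin complex, fitted to a four-parameter Hill equation for concentration-effect values. Binding mix: 10 uM horse-spleen apoferritin, 50% saturated 1-AMA in PBS; read 380/535 nm after 10 min.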

[15] = target: ATP-dependent DNA helicase Q1 (Homo sapiens) (UniProt P46063); assay: qHTS Validation Assay for Inhibitors of RecQ-Like Dna Helicase 1 (RECQ1) (AID 2353); also: potency is read from the fitted curve at half-maximal effect
In short: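 50 nM RECQ1T1 preincubated 15 min with compound in Tris pH 8.0 buffer with MgCl2, DTT, Tween-20 and 2.5 ug/ml poly(dI-dC); started with 200 nM TAMRA/BHQ-2 forked duplex and 2 mM ATP. Unwinding read as fluorescence (525/598 nm), two reads 2 h apart.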

[16] = target: RecQ-like DNA helicase BLM (Homo sapiens) (UniProt P54132); assay: qHTS Validation Assay for Inhibitors of Bloom's syndrome helicase (BLM) (AID 2364); also: potency is read from the fitted curve at half-maximal effect
In short: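 BLM 50 nM in 25 mM Tris-HCl pH 8.0, 5 mM NaCl, 2 mM MgCl2, 1 mM DTT, 0.01% Tween-20, 2.5 ug/ml poly(dI-dC); 15 min cpd preinc, RT. Start: 200 nM forked DNA + 2 mM ATP (final). TAMRA read, 2 reads 2 h apart.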

[17] = Validation screen for small molecules that induce DNA re-replication in MCF 10A normal breast cells (AID 463097); also: potency is read from the fitted curve at half-maximal effect; nearly all actives have a fitted effect of over 60% in size
In short: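 Following 48 hr compound incubation (37 C, 5% CO2), MCF 10A cells receive Hoechst for 40 min at 37 C. Nuclei are then scanned (excitation 405 nm, emission 500-530 nm) for total fluorescence intensity.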

[18] = Quantitative high throughput screen for delayed death inhibitors of the malarial parasite plastid, 96 hour incubation (AID 488745); also: potency is read from the fitted curve at half-maximal effect; nearly all actives have a fitted effect of over 70% in size
In short: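 Luciferase-expressing P. falciparum in erythrocytes (2% hematocrit, 0.1% parasitemia) incubated with compound for 96 h at 37 C, 5% CO2, in RPMI 1640 with 0.5% Albumax. Growth inhibition read as decreased luminescence.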

[19] = target: M-phase phosphoprotein 8 (Homo sapiens) (UniProt Q99549); assay: qHTS Validation Assay for Inhibitors for MPP8 Chromodomain Interactions with Methylated Histone Tails (AID 488949); also: potency is read from the fitted curve at half-maximal effect; nearly all actives have a fitted effect of over 55% in size
In short: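 Chemiluminescent proximity assay: histidine-tag capture via nickel acceptor beads, biotin peptide via streptavidin donor beads. Protein and peptide each at 50 nM, pH 7.4, with 30 min incubations at room temperature for complex formation, compound exposure and bead binding.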
Tags tell the direction and shape of the fitted curve or compound fluorescence and quenching.

UniProt Q9HAZ1, sequence (Q9HAZ1 whole entry, looked up): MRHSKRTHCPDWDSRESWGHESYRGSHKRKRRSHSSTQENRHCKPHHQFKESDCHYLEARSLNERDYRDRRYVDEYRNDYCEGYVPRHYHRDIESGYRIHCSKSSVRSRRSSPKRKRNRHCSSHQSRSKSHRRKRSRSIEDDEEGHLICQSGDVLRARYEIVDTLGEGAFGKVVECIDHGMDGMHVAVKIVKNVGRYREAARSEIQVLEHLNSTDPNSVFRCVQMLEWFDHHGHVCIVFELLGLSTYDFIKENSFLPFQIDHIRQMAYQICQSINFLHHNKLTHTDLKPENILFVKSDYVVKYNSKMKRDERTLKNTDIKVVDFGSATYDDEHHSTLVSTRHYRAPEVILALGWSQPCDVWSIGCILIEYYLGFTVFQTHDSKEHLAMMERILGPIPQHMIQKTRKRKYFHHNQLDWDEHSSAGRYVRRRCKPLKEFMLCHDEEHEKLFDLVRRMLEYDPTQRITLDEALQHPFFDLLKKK
UniProt Q99549, sequence (Q99549 whole entry, looked up): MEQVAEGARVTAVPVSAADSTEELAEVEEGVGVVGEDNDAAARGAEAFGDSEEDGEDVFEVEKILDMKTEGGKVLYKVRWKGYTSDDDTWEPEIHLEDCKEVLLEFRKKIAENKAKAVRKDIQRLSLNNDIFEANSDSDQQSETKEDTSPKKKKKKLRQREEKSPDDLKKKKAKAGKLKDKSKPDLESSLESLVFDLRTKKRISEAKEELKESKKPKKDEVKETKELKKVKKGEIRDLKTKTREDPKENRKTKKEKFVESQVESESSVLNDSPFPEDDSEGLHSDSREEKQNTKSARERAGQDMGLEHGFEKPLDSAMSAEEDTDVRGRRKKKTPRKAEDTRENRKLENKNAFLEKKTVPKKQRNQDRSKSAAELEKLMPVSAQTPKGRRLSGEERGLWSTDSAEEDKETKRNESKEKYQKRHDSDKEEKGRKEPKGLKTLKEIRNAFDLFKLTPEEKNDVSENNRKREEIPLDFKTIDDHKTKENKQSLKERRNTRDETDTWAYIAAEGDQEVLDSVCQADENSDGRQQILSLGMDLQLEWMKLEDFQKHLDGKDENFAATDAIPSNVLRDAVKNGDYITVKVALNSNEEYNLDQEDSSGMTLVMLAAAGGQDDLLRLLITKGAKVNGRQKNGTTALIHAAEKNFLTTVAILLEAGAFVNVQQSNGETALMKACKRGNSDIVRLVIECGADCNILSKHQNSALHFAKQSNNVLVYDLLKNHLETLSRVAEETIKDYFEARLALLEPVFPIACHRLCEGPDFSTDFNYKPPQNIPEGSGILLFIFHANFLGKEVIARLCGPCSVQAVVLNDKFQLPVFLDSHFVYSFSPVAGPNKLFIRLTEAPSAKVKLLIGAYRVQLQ
UniProt P10635, sequence (P10635 whole entry, looked up): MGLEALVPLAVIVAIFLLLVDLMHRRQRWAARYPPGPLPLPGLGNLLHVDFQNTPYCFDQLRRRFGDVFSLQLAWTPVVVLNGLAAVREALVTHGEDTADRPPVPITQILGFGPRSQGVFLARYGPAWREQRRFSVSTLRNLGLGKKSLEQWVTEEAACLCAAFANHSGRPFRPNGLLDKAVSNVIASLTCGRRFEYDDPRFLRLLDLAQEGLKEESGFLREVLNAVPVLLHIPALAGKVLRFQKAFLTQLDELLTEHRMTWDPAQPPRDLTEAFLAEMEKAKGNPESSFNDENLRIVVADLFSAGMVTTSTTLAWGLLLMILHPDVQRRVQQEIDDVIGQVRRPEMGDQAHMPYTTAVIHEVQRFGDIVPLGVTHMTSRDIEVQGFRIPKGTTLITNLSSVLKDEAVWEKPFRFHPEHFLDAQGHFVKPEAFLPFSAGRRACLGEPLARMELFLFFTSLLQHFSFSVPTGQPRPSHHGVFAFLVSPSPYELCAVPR
UniProt P02791, sequence (P02791 whole entry, looked up): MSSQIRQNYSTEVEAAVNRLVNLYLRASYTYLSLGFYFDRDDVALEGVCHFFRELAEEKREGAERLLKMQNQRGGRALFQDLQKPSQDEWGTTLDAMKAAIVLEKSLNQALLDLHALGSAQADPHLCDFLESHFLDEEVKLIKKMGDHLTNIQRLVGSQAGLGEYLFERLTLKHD
UniProt P54132, sequence (P54132 whole entry, looked up): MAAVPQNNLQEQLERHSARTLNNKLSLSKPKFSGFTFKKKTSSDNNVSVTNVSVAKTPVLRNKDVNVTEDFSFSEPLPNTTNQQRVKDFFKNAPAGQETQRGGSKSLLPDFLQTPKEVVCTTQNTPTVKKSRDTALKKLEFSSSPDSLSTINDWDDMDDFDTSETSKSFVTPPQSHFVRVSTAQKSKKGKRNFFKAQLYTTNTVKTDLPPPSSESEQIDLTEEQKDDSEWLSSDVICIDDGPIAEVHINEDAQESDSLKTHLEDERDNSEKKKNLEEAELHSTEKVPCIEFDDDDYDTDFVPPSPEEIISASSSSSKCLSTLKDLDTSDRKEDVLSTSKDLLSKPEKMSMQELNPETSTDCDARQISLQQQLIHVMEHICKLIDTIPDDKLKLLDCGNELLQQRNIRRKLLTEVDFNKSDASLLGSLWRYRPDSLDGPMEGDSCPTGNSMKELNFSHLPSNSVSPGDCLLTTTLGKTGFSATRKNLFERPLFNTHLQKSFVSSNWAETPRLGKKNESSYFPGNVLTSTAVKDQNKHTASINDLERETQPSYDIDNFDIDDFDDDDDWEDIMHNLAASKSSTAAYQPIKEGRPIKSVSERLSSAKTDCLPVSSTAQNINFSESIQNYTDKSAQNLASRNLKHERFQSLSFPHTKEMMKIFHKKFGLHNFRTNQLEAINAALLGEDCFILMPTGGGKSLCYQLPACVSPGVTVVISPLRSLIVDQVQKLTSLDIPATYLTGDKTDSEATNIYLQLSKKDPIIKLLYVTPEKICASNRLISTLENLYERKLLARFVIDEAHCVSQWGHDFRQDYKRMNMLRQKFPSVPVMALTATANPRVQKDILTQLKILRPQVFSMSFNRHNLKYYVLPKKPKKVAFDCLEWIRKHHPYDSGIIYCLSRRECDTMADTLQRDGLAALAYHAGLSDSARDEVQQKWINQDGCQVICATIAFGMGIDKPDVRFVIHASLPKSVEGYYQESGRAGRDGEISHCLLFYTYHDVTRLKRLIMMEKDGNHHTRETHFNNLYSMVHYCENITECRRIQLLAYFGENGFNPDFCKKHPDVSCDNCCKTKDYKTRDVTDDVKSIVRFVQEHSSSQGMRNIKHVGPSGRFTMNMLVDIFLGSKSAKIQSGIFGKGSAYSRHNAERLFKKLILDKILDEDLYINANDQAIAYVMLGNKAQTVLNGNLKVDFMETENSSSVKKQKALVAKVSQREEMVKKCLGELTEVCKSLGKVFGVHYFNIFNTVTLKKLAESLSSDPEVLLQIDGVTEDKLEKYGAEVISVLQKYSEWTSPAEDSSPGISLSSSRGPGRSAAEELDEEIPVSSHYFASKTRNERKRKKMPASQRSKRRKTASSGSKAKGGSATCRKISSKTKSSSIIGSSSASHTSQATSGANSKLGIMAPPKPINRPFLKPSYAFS
UniProt P08482, sequence (P08482 whole entry, looked up): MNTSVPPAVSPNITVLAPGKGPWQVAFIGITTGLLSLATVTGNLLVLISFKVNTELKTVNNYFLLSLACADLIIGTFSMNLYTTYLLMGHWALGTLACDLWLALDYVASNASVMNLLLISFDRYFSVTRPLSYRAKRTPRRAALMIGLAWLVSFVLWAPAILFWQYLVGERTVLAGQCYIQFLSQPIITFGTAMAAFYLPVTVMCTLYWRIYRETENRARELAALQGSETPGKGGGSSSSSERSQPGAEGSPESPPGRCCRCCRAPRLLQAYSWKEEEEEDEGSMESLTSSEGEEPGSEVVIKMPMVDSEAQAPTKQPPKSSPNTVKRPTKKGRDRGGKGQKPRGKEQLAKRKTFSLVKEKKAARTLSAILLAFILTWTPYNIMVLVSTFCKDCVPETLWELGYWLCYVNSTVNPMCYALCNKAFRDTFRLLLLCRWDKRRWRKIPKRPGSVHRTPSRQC
UniProt P46063, sequence (P46063 whole entry, looked up): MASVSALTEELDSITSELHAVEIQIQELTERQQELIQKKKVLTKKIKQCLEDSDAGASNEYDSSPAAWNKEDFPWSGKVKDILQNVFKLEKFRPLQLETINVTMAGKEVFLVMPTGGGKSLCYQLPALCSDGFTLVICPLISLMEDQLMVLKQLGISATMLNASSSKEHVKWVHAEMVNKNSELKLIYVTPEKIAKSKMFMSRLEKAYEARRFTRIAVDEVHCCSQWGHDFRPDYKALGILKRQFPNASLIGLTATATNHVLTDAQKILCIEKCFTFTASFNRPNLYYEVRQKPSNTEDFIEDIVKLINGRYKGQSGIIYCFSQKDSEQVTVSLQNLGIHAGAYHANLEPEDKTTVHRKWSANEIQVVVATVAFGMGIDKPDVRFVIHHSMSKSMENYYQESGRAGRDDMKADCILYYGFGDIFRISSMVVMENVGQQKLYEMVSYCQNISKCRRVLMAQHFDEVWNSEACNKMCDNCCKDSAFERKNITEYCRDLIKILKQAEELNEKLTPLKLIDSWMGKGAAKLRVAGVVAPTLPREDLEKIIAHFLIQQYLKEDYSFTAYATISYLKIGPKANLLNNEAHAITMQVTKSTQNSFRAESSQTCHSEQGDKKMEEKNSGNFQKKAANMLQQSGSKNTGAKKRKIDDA

Structure (SMILES) | Potency [1] | activity change, negative = inhibition [2] | Potency [3] | Potency [4] | Potency [5] | activity change, negative = inhibition [6] | activity change, negative = inhibition [7] | Potency [8] | Potency [9] | Potency [10] | Potency [11] | Potency [12] | Potency [13] | Potency [14] | Potency [15] | Potency [16] | Potency [17] | Potency [18] | Potency [19]
COc1ccc(CNc2ccnc(-c3ccccc3OC)n2)c(OC)c1 | inconclusive: 6.31 µM [rising, partial curve, poor fit] | inconclusive: 1.87% | inactive | inactive | inconclusive: 35.5 µM [inhibitor, single point] |  |  |  |  |  |  |  |  |  |  |  |  |  | 
Cc1cc(N)c2ccccc2[n+]1CCCCCCCCCCCCCC[n+]1c(C)cc(N)c2ccccc21 |  | inconclusive: -95.5% |  |  |  | inconclusive: -43.9% [inhibitor] [at 38 µM] | active: -82.1% [at 38 µM] | active: 7.94 µM | inconclusive: 10 µM [cytotoxic, side channel] | inconclusive: 20 µM [cytotoxic, side channel, partial curve] | inconclusive: 2.51 µM [inhibitor, full curve] | active: 3.98 µM | active: 28.2 µM | inconclusive: 7.08 µM [inhibitor, full curve] | inconclusive: 15.8 µM [inhibitor, single point] | inconclusive: 28.2 µM [inhibitor, single point] | inconclusive: 3.98 µM [activator, single point] | inconclusive: 1.47 µM [inhibitor, full curve, poor fit] | active: 39.8 µM
